Data published in the supplement of paper PMC4967469.

Tests used:
Experiment in all cases: Viability of human cancer cell lines after 72 h of drug (GDSC screen)
Bexarotene = compound: C=C(c1ccc(C(=O)O)cc1)c1cc2c(cc1C)C(C)(C)CCC2(C)C [Bexarotene]; conditions: top dose 8 µM
Method: (§1)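 Human cancer cell lines in 384-well plates, medium with 10% serum, drug for 72 h over a 256-fold dose range (nine 2-fold or five 4-fold steps up to the top dose). Adherent lines were fixed and stained with the nucleic acid dye Syto60, suspension lines read with resazurin; signal relative to control wells, capped at 0 and 100%. One two-parameter sigmoid per drug and line, fitted in a mixed model over all curves with the slope shared within a line.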

YK 4-279 = compound: COc1ccc(C(=O)CC2(O)C(=O)Nc3c(Cl)ccc(Cl)c32)cc1 [YK 4-279]; conditions: top dose 10 µM
Method: as §1

Etoposide = compound: COc1cc([C@@H]2c3cc4c(cc3[C@@H](O[C@@H]3O[C@@H]5CO[C@@H](C)O[C@H]5[C@H](O)[C@H]3O)[C@H]3COC(=O)[C@H]23)OCO4)cc(OC)c1O [Etoposide]; conditions: top dose 16 µM
Method: as §1

AZD7762 = compound: NC(=O)Nc1cc(-c2cccc(F)c2)sc1C(=O)N[C@H]1CCCNC1 [AZD7762]; conditions: top dose 2 µM
Method: as §1

NPK76-II-72-1 = compound: COc1cc(C(=O)NC2CCN(C)CC2)ccc1Nc1ncc2c(n1)N(C1CCCC1)C(C)CC(=O)N2C [NPK76-II-72-1]; conditions: top dose 10.24 µM; top dose inferred
Method: as §1

BMS-345541 = compound: Cc1ccc2nc(NCCN)c3ncc(C)n3c2c1 [BMS-345541]; conditions: top dose 16 µM
Method: as §1

XAV 939 = compound: Oc1nc(-c2ccc(C(F)(F)F)cc2)nc2c1CSCC2 [XAV 939]; conditions: top dose 5 µM; top dose inferred
Method: as §1

GSK-650394 = compound: O=C(O)c1ccc(-c2c[nH]c3ncc(-c4ccccc4)cc23)cc1C1CCCC1 [GSK-650394]; conditions: top dose 16 µM; top dose inferred
Method: as §1

Cell Line | AUC (Bexarotene) | IC50 (Bexarotene) [µM] | AUC (YK 4-279) | IC50 (YK 4-279) [µM] | AUC (Etoposide) | IC50 (Etoposide) [µM] | AUC (AZD7762) | IC50 (AZD7762) [µM] | AUC (NPK76-II-72-1) | IC50 (NPK76-II-72-1) [µM] | AUC (BMS-345541) | IC50 (BMS-345541) [µM] | AUC (XAV 939) | IC50 (XAV 939) [µM] | AUC (GSK-650394) | IC50 (GSK-650394) [µM]
RPMI-6666 (Hodgkin lymphoma, suspension) | 0.823 | 6.04 | 0.765 | 4.37 | 0.526 | 1.2 | 0.84 | 1.81 | 0.675 | 2.19 | 0.725 | 5.03 | 0.976 | > 5 | 0.863 | > 16
RPMI-8402 (T-cell lymphoblastic leukaemia, suspension) | 0.988 | > 8 | 0.685 | 1.87 | 0.264 | 0.242 | 0.542 | 0.16 | 0.315 | 0.214 | 0.522 | 1.14 | 0.973 | > 5 | 0.865 | 10.5
RPMI-8866 (chronic myeloid leukaemia, suspension) | 0.977 | > 8 | 0.609 | 1.21 | 0.745 | 4.72 | 0.437 | 0.0853 | 0.782 | 3.96 | 0.89 | > 16 | 0.84 | 3.08 | 0.987 | > 16
RT4 (bladder, adherent) | 0.987 | > 8 | 0.825 | 6.41 | 0.95 | > 16 | 0.882 | > 2 | 0.724 | 2.88 | 0.872 | > 16 | 0.984 | > 5 | 0.91 | > 16
Raji (Burkitt lymphoma, suspension) | 0.966 | > 8 | 0.71 | 2.33 | 0.828 | 9.02 | 0.784 | 0.792 | 0.882 | 9.6 | 0.87 | 13.3 | 0.977 | > 5 | 0.929 | > 16
Ramos-2G6-4C10 (Burkitt lymphoma, suspension) | 0.983 | > 8 | 0.68 | 1.83 | 0.842 | 8.94 | 0.461 | 0.0997 | 0.664 | 1.69 | 0.876 | 12 | 0.99 | > 5 | 0.887 | 13.4
SBC-1 (small cell lung carcinoma, suspension) | 0.937 | > 8 | 0.682 | 1.97 | 0.935 | > 16 | 0.87 | 1.74 | 0.886 | > 10.2 | 0.916 | > 16 | 0.966 | > 5 | 0.989 | > 16
SBC-3 (small cell lung carcinoma, adherent) | 0.948 | > 8 | 0.594 | 1.1 | 0.292 | 0.276 | 0.825 | 1.06 | 0.749 | 3.05 | 0.811 | 7.57 | 0.988 | > 5 | 0.695 | 3.32
SCC-4 (head and neck, adherent) | 0.905 | > 8 | 0.706 | 2.69 | 0.744 | 5.82 | 0.801 | 1.2 | 0.948 | > 10.2 | 0.937 | > 16 | 0.962 | > 5 | 0.853 | > 16
SCC-25 (head and neck, adherent) | 0.983 | > 8 | 0.855 | 9.67 | 0.738 | 5.31 | 0.9 | > 2 | 0.866 | > 10.2 | 0.773 | 7.07 | 0.929 | > 5 | 0.93 | > 16
SCH (stomach, adherent) | 0.973 | > 8 | 0.958 | > 10 | 0.988 | > 16 | 0.857 | 1.83 | 0.988 | > 10.2 | 0.942 | > 16 | 0.943 | > 5 | 0.988 | > 16
SF539 (glioma, adherent) | 0.987 | > 8 | 0.658 | 1.63 | 0.549 | 1.34 | 0.455 | 0.0954 | 0.82 | 5.12 | 0.88 | 13.7 | 0.976 | > 5 | 0.976 | > 16
SH-4 (melanoma, adherent) | 0.819 | > 8 | 0.952 | > 10 | 0.626 | 2.69 | 0.851 | > 2 | 0.879 | > 10.2 | 0.877 | > 16 | 0.854 | > 5 | 0.836 | > 16
SHP-77 (small cell lung carcinoma, semi-adherent) | 0.991 | > 8 | 0.585 | 1.04 | 0.97 | > 16 | 0.968 | > 2 | 0.908 | > 10.2 | 0.884 | 14 | 0.991 | > 5 | 0.989 | > 16
SIMA (neuroblastoma, adherent) | 0.977 | > 8 | 0.733 | 3.2 | 0.777 | 7.29 | 0.493 | 0.119 | 0.816 | 6.64 | 0.925 | > 16 | 0.984 | > 5 | 0.952 | > 16
SISO (cervix, adherent) | 0.855 | 5.95 | 0.639 | 1.49 | 0.346 | 0.382 | 0.695 | 0.43 | 0.953 | > 10.2 | 0.918 | > 16 | 0.938 | > 5 | 0.762 | 5.52
SJRH30 (rhabdomyosarcoma, adherent) | 0.94 | > 8 | 0.755 | 3.48 | 0.727 | 4.53 | 0.23 | 0.0199 | 0.891 | > 10.2 | 0.854 | 13.3 | 0.985 | > 5 | 0.927 | > 16

Cell Line | AUC (Bexarotene) | IC50 (Bexarotene) [µM] | AUC (YK 4-279) | IC50 (YK 4-279) [µM] | AUC (Etoposide) | IC50 (Etoposide) [µM] | AUC (AZD7762) | IC50 (AZD7762) [µM] | AUC (NPK76-II-72-1) | IC50 (NPK76-II-72-1) [µM] | AUC (BMS-345541) | IC50 (BMS-345541) [µM] | AUC (XAV 939) | IC50 (XAV 939) [µM] | AUC (GSK-650394) | IC50 (GSK-650394) [µM]
SK-ES-1 (Ewing sarcoma, semi-adherent) | 0.938 | > 8 | 0.724 | 2.85 | 0.461 | 0.779 | 0.784 | 0.905 | 0.849 | 8.45 | 0.866 | 15.8 | 0.976 | > 5 | 0.733 | 4.87
SK-LMS-1 (soft tissue, adherent) | 0.853 | 5.76 | 0.545 | 0.823 | 0.435 | 0.669 | 0.656 | 0.331 | 0.821 | 5.55 | 0.848 | 11.1 | 0.978 | > 5 | 0.675 | 3
SK-MEL-1 (melanoma, suspension) | 0.992 | > 8 | 0.97 | > 10 | 0.989 | > 16 | 0.992 | > 2 | 0.993 | > 10.2 | 0.965 | > 16 | 0.973 | > 5 | 0.993 | > 16
SK-MEL-3 (melanoma, adherent) | 0.981 | > 8 | 0.882 | > 10 | 0.825 | 11.7 | 0.898 | > 2 | 0.919 | > 10.2 | 0.884 | > 16 | 0.983 | > 5 | 0.872 | > 16
SK-MEL-24 (melanoma, adherent) | 0.944 | > 8 | 0.806 | 6.42 | 0.93 | > 16 | 0.867 | > 2 | 0.969 | > 10.2 | 0.98 | > 16 | 0.898 | > 5 | 0.983 | > 16
SK-N-DZ (neuroblastoma, adherent) | 0.963 | > 8 | 0.592 | 1.12 | 0.922 | > 16 | 0.755 | 0.671 | 0.978 | > 10.2 | 0.956 | > 16 | 0.987 | > 5 | 0.922 | > 16
SK-N-FI (neuroblastoma, adherent) | 0.98 | > 8 | 0.752 | 3.29 | 0.982 | > 16 | 0.801 | 0.965 | 0.951 | > 10.2 | 0.867 | 14.2 | 0.986 | > 5 | 0.989 | > 16
SK-N-SH (neuroblastoma, adherent) | 0.922 | > 8 | 0.584 | 1.06 | 0.368 | 0.435 | 0.797 | 0.935 | 0.945 | > 10.2 | 0.877 | 15.8 | 0.969 | > 5 | 0.885 | > 16
SK-OV-3 (ovary, adherent) | 0.871 | > 8 | 0.73 | 3.4 | 0.816 | 11.9 | 0.666 | 0.41 | 0.797 | 6.32 | 0.749 | 6.37 | 0.93 | > 5 | 0.875 | > 16
SK-PN-DW (Ewing sarcoma, adherent) | 0.976 | > 8 | 0.716 | 2.63 | 0.351 | 0.379 | 0.542 | 0.164 | 0.754 | 3.55 | 0.881 | > 16 | 0.981 | > 5 | 0.81 | 8.85
SK-UT-1 (soft tissue, adherent) | 0.919 | > 8 | 0.644 | 1.5 | 0.1 | < 0.0625 | 0.596 | 0.224 | 0.983 | > 10.2 | 0.899 | > 16 | 0.938 | > 5 | 0.654 | 2.56
SKG-IIIa (cervix, adherent) | 0.946 | > 8 | 0.842 | > 10 | 0.876 | > 16 | 0.737 | 0.767 | 0.98 | > 10.2 | 0.976 | > 16 | 0.959 | > 5 | 0.966 | > 16
SKN-3 (head and neck, adherent) | 0.982 | > 8 | 0.805 | 6.16 | 0.857 | > 16 | 0.565 | 0.194 | 0.95 | > 10.2 | 0.914 | > 16 | 0.937 | > 5 | 0.983 | > 16
SLVL (B-cell lymphoma, suspension) | 0.981 | > 8 | 0.9 | > 10 | 0.588 | 1.77 | 0.747 | 0.672 | 0.735 | 3.13 | 0.571 | 1.58 | 0.976 | > 5 | 0.952 | > 16
SNB75 (glioma, adherent) | 0.732 | 3.17 | 0.702 | 3.05 | 0.786 | 10.7 | 0.833 | > 2 | 0.976 | > 10.2 | 0.866 | > 16 | 0.949 | > 5 | 0.935 | > 16
SNG-M (endometrium, adherent) | 0.89 | > 8 | 0.597 | 1.15 | 0.512 | 1.08 | 0.47 | 0.104 | 0.656 | 1.71 | 0.907 | > 16 | 0.849 | 3.64 | 0.594 | 

A lower IC50 marks a more sensitive line; a limit (>, <) means that the fit lies beyond the doses tested. The AUC spans the tested range (256-fold, ending at the top dose) of the same fit; it is 1 without any effect and falls as sensitivity rises. For some assays here: Any top dose called inferred comes from the curve model; the source does not state it.
